This passage reports GI50 and TGI results from PubChem BioAssay (NCI).

The structures appear in SMILES notation.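 Exposure lasted 48 hours, with cells grown in 96-well plates and compounds tested at five concentrations. At the GI50, growth is halved. TGI: concentration producing complete growth inhibition.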

The test system of the experiment is NCI-H322M lung. Nature of the experiment: NCI-60 cell line screen, 48 h.

Turning to `CC1OC(O[C@@H]2[C@H](O)C(CO)OC(O[C@H]3COC(O[C@H]4CC[C@]5(C)[C@H]6CC[C@]78OC[C@@]9(CCC(C)(C)C[C@H]97)[C@H](O)C[C@@]8(C)[C@]6(C)CC[C@H]5C4(C)C)[C@@H](OC4OC(CO)[C@@H](O)[C@@H](O)[C@@H]4O)[C@@H]3O)[C@H]2OC2OC[C@@H](O)[C@@H](O)[C@@H]2O)[C@@H](O)[C@@H](O)[C@H]1O` (stereo partly drawn), the GI50 is 2.41 µM and the TGI was 4.49 µM.
`O=c1oc2ccc(-c3ccc(F)cc3F)cc2c(=O)n1-c1ccc(F)c(F)c1`: the GI50 was 1.45 µM and the TGI was 17.7 µM.
The corresponding values for `Cn1ncc2ncc(-c3ccc4ncc(C#N)c(N5CCc6cc(F)c(Cl)cc65)c4c3)cc21` are 4.49 µM and more than 100 µM.
The corresponding values for `CN1CCN(c2nc(-c3cnc4ccccc4n3)cc3ccccc23)CC1` are more than 45.9 µM and more than 100 µM.
